Assay results taken from PubChem BioAssay AID1468 (National Center for Advancing Translational Sciences (NCATS), 2008).
Values joined by “and” are separate entries in the source; they are usually repeats but may differ in a detail not shown here. Identical values can stand only once. Screen size: about 280,000 compounds; about 1,100 (0.39%) were called active. Inconclusive means that the source gave no clear call. Such entries were picked first, then a sample of the others. Calls follow the shape of the dose curve; as a rule, active = well fitted inhibition curve with a large enough effect; inconclusive = small, poorly fitted or top-dose-only effect, or effect the other way; inactive = flat fitted curve, though single readings scatter. Where the call is inconclusive, the potency comes from a doubtful curve fit.

Molecular target: Microtubule-associated protein tau (Homo sapiens) (UniProt P10636)
Sequence of UniProt P10636 (P10636 whole entry, looked up): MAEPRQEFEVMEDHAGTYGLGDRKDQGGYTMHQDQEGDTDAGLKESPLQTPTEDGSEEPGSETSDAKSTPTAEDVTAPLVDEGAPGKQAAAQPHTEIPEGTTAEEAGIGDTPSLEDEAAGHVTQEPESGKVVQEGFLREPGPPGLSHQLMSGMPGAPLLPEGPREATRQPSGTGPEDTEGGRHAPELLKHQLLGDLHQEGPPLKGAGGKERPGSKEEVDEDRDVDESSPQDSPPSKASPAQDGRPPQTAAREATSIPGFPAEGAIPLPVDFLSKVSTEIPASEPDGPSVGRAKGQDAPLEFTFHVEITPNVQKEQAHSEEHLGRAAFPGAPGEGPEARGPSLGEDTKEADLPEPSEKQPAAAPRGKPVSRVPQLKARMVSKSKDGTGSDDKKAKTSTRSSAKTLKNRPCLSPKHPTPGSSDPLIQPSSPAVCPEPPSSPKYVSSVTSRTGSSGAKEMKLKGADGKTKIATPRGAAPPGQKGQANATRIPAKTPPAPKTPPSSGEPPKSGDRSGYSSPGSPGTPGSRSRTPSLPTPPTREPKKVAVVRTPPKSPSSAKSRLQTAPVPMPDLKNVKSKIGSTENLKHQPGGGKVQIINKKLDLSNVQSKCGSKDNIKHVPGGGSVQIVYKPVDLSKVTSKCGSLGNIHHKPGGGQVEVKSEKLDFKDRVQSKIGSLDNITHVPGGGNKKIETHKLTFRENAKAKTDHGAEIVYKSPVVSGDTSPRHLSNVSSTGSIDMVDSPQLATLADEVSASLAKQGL
Test: qHTS for Inhibitors of Tau Fibril Formation, Fluorescence Polarization; also: nearly all actives have a fitted effect of over 55% in size
Conditions: K18 P301L tau heparin fibrillization, Alexa594 FP, 6 h; series mostly up to 57.7 µM
How it was run: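 FP of Alexa 594-tau after heparin (20 uM) induction. Substrate: human K18 P301L, 15 uM unlabeled, 0.24 uM labeled. Buffer 100 mM sodium acetate pH 7. 6 hr, 37 C.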
Potency is read from the fitted curve at half-maximal effect; tags tell the direction and shape of the fitted curve.

Potency, inactive:
CN(Cc1ccccc1)c1ccc(N2C(=O)CCC2=O)cc1[N+](=O)[O-]
Cc1ccc(-c2nn[nH]n2)o1
CCN(CC)S(=O)(=O)c1ccc2c(c1)nc(SCn1nnc3ccccc3c1=O)n2CC
COc1ccc(C(=O)Oc2cc(-c3ccc(OC)c(OC)c3)cc(=O)c3c(C)oc(C)c23)cc1
CC(C)CC(=O)OCc1cc(=O)n2nc(C3CCCCC3)sc2n1
Cn1cccc1C(=O)OCC(=O)c1cc2ccccc2o1
COc1ccc(-n2c(=S)[nH]c3cc(C(=O)O)ccc3c2=O)cc1
Cc1ccc(OCC(=O)Nc2ccc(O)c(C(=O)O)c2)cc1C
CCOC(=O)Cn1c(=O)oc2cc(S(=O)(=O)N3CCN(c4ccc(F)cc4)CC3)ccc21
Cc1cc(C(=O)O)ccc1-c1ccc(/C=C2\NC(=O)N(Cc3ccccc3Cl)C2=O)o1
COc1ccc(-n2c(=S)[nH]c3cc(C(=O)NCCCN4CCCC4=O)ccc3c2=O)c(OC)c1
CNC(=O)CN1C(=O)C2C3C=CC(C3)C2C1=O (centres undefined)
CCNc1nc(-c2cc(C)n(Cc3ccco3)c2C)cs1
CCc1ccccc1-n1nnnc1-c1cnccc1C(F)(F)F
S=C(NCCc1ccccc1)Nc1ccc(Cl)cc1Cl
NC(=O)/C(=N\OC(=O)c1ccco1)c1nc(-c2ccc(Br)cc2)cs1
CCn1c(SCC(=O)OCc2ccccc2)nnc1-c1ccco1
O=C(NC1CCCC1)c1csc2c1CCCC2
COc1cccc(CNC(=O)C2CCC(CNS(=O)(=O)c3cccc4nsnc34)CC2)c1 (centres undefined)
CCN1CCN(C(c2ccc(F)cc2)c2sc3nc(-c4ccco4)nn3c2O)CC1 (centres undefined)
CS(=O)(=O)c1ccc(-c2cn3cc(C(=O)O)ccc3n2)cc1
CCOc1ccc(NC(=O)CSc2nc3cccnc3n2CCOC)cc1

Potency, inconclusive:
CC(C)N1C(=O)S/C(=C/c2ccccc2OCc2ccc(C(=O)O)cc2)C1=O 7.94 µM [inhibitor, single point]
COc1cccc(NC(=O)Cn2cc(C(=O)c3ccco3)c3ccccc32)c1 22.4 µM [inhibitor, partial curve]
COc1ccc(/C=N/NS(=O)(=O)c2ccc(C)cc2)cc1OC(=O)c1ccc(C)cc1 20 µM [inhibitor, single point]
CCN1/C(=C/C=C/c2oc3ccc4ccccc4c3[n+]2CC)Oc2ccc3ccccc3c21 20 µM [activator, partial curve]
Cc1nc(N)sc1C(=O)N/N=C/c1c[nH]c2ccccc12 39.8 µM [activator, single point]
CCCCOc1ccc(C(=O)Nc2ccc(C)cc2[N+](=O)[O-])cc1 3.16 µM [activator, partial curve]
O=C(CCCc1c[nH]c2ccccc12)Nc1ccc2ccccc2c1 39.8 µM [inhibitor, single point]
Cc1cccc(C)c1NC(=O)C(NC(=O)c1ccccn1)c1ccc([N+](=O)[O-])cc1 (centres undefined) 8.91 µM [inhibitor, single point]
CC(=O)Nc1ccc(C(=O)OCc2ccc(Br)cc2)cc1 25.1 µM [inhibitor, partial curve]
CCN(CC)c1ccc(/C=N/NC(=S)NCc2ccco2)cc1 7.08 µM [activator, full curve]
CNc1ccc(Br)cc(C(=O)/C=C/c2cccc(OC)c2OC)c1=O 15.8 µM [inhibitor, partial curve, poor fit]
COc1ccc(NC(=O)c2nc[nH]c2C(=O)N[C@H](C)c2ccccc2)cc1 25.1 µM [inhibitor, partial curve]
COc1cccc(/C=N/Nc2nc(-c3cccnc3)nc3ccccc23)c1 8.91 µM [inhibitor, full curve]
Cc1ccc(NC(=O)c2nc[nH]c2C(=O)Nc2ccc(C)cc2)cc1 11.2 µM [inhibitor, partial curve]
O=C(Nc1ccccc1)N(Cc1cccc(Cl)c1)c1ccccn1 14.1 µM [inhibitor, partial curve, poor fit]
Cc1ccc(-c2csc(NC(=S)NC(=O)/C=C/c3ccco3)n2)cc1 28.2 µM [inhibitor, single point]
CCOC(=O)CSc1cc(-c2ccccc2)nc2ncnn12 5.01 µM [inhibitor, full curve, poor fit]
COc1cc(C2NC(=O)C(C#N)=C(Nc3cccc(C)c3)S2)ccc1O (centres undefined) 44.7 µM [inhibitor, single point] and 28.2 µM [inhibitor, single point]
CCCCN=C1C([N+](=O)[O-])=CC=C2C1=NC1(CCCCC1)N2O 10 µM [inhibitor, partial curve]
Cc1noc(C)c1CSc1nnc(-c2ccccc2)n1Cc1ccco1 8.91 µM [activator, single point]
Cc1ccc(C2=NN=C(NC(=O)CSc3nc(C)cc(C)n3)SC2)cc1 17.8 µM [inhibitor, partial curve]
O=C(N=Nc1c(O)n(Cc2ccccc2)c2ccccc12)c1cc2ccccc2cc1O 0.708 µM [activator, full curve, poor fit]
O=C(Cn1cc(C(=O)c2cccs2)c2ccccc21)Nc1ccc(Br)cc1 7.94 µM [activator, single point]
COc1ccc(-c2nc(C#N)c(NCCc3ccccc3)o2)cc1OC 3.55 µM [activator, partial curve]
CN=c1nc(-c2ccccc2)n(-c2ccccc2)s1 35.5 µM [inhibitor, partial curve, poor fit]
O=C(NCc1cccnc1)C1CCN(S(=O)(=O)c2cccs2)CC1 3.98 µM [inhibitor, full curve]
CCOc1nc(-c2ccccc2O)nc2ccccc12 20 µM [inhibitor, single point]
Cc1ccc(NC(=O)CN2C(=O)CC(c3ccc(C)c(C)c3)=Nc3ccccc32)cc1 11.2 µM [inhibitor, partial curve]
O=C(/C(=C/c1cccc(Cl)c1)c1nc2ccccc2[nH]1)c1ccccc1 22.4 µM [inhibitor, partial curve]
O=C(CSc1nnnn1-c1ccccc1)Nc1nc(-c2ccccc2)ns1 3.16 µM [inhibitor, full curve, poor fit]
COC(=O)N/N=C/c1cn(Cc2ccccc2F)c2ccccc12 4.47 µM [activator, partial curve]
O=C(Nc1nc(-c2ccc(S(=O)(=O)N3CCCC3)cc2)cs1)c1cccs1 28.2 µM [inhibitor, partial curve]
Cc1ccc(C2CC(=O)N3CN(Cc4ccco4)CSC3=C2C#N)cc1 (centres undefined) 4.47 µM [inhibitor, partial curve]
Clc1ccc(SCc2cc(-c3ccc(Cl)cc3)on2)cc1 11.2 µM [inhibitor, partial curve, poor fit]
COc1ccc(-c2csc(NC(=O)CSc3nc(SC)ns3)n2)cc1 20 µM [inhibitor, partial curve, poor fit]
O=C(/C=C/c1cccc([N+](=O)[O-])c1)Nc1cccc(NC(=O)c2cccs2)c1 12.6 µM [inhibitor, partial curve]
CCC(=O)Nc1ccc(C(=O)N/N=C/c2c(C)[nH]c3ccccc23)cc1 28.2 µM [activator, partial curve]
Cc1ccccc1N=Cc1cc2c(cc1O)OC(N)=C(C#N)C2c1ccccc1 (centres undefined) 28.2 µM [inhibitor, single point]
COc1cccc(-c2ccc(-c3noc(-c4cccs4)n3)c(OC)n2)c1 28.2 µM [inhibitor, single point]
Cc1ccc(Nc2c(-c3ccc(C)o3)nc3cnccn23)cc1 25.1 µM [activator, partial curve]
CCOC(=O)N1CC=C2C(C#N)=C(N)C(C#N)(C#N)[C@H](c3ccsc3)[C@H]2C1 39.8 µM [inhibitor, single point]
CCOC(=O)Cc1c(C)nc2cc(-c3ccc(C)cc3)[nH]n2c1=O 39.8 µM [inhibitor, single point]
CN1CCc2c(sc(/N=C/c3c[nH]c4ccccc34)c2C(N)=O)C1 20 µM [inhibitor, partial curve, poor fit]
CC(C)CNc1c(N)c(=O)oc2ccccc12 3.55 µM [inhibitor, single point]
CCCC[C@@H]1C[C@H]1C(NC(=O)c1cccs1)c1ccccc1C(F)(F)F (some centres undefined) 5.01 µM [inhibitor, full curve]
Cc1cc(N=NC(=O)c2ccccc2)ccc1O 0.631 µM [inhibitor, partial curve]
CN(C)S(=O)(=O)c1cccc(NC(=O)COC(=O)/C=C/c2ccc3c(c2)OCO3)c1 15.8 µM [inhibitor, partial curve]
